Measured values as given in PubChem BioAssay AID493208 (National Center for Advancing Translational Sciences (NCATS), 2011).
Hit rate of the full screen: of about 44,000 compounds, about 340 (0.77%) were called active. Inconclusive results, whose numbers are uncertain, are shown with a selection of clear calls. Calls come from the whole dose curve; as a rule, active = well fitted inhibition curve with a large enough effect; inconclusive = small, poorly fitted or top-dose-only effect; inactive = flat fitted curve, though single readings scatter. No potency is given beside an inconclusive call; the fits are too rough.

Assay: Acumen qHTS Assay for Inhibitors of the mTORC1 Signaling Pathway in MEF (Tsc2-/-, p53-/-) Cells: Sytravon; note: nearly all actives have a fitted effect of over 50% in size
Conditions: phospho-rpS6 immunofluorescence/PI, 24 h; series mostly up to 38.3 µM
Description: NIH Molecular Libraries Probe Production Centers Network [MLPCN] NIH Chemical Genomics Center [NCGC] MLPCN Grant: NS059428-01 Assay Submitter (PI): Blenis, John; Hoffman, Greg; Harvard University NCGC Assay Overview: The mammalian target of rapamycin (mTOR) is an intracellular serine/threonine kinase Aberrant regulation of mTOR signaling plays a causative role in a number of human diseases, including cancer, benign tumors such as lymphangioleiomyomatosis (LAM) and Tuberous Sclerosis Complex (TSC), and metabolic diseases such as diabetes and obesity. This project aims to identify inhibitors of ribosomal protein S6 (rpS6) phosphorylation. The phosphorylation of rpS6 is a key event downstream of mTOR activation. The assay uses a phospho-specific antibody of phospho-rpS6 to detect inhibitors of mTOR activation. Mutations in the Tsc1 and Tsc2 genes are the underlying genetic lesions responsible for TSC, causing constitutive activation of the mTORC1 pathway and leading to profound effects on cell metabolism. Aberrant metabolism in cancer has recently received significant attention as a target to develop therapeutic agents in the treatment of cancer.1 As Tsc2-/- cells have lost the ability to respond to energy and growth factor deprivation, these cells are unable to properly down regulate cellular biosynthetic processes in response to metabolic stress, and are thus extremely sensitive to glucose deprivation-induced death.2 A central goal of this project is to explore the unique cell survival and metabolic properties of cells with Tsc1 or Tsc2 by screening for compounds that selectively target the Tsc2-/- MEFs by screening both Tsc2-/- and WT MEF cell lines. We hope to better understand these aspects of TSC physiology in order to exploit them for therapeutic benefit.
NCGC Acumen Assay Protocol Summary: For quantitative high throughput analysis of mTORC1 signaling, we developed a cell-based assay for immuno-fluorescence based detection of rpS6 phosphorylation on the Acumen Explorer that will be used a platform for the primary small molecule screen. Mouse embryonic fibroblasts (MEFs) are cultured in 1536-well plates using DMEM + 10% FBS. Twenty-four hrs after plating, test compounds (solubilized in DMSO) are delivered and incubated with the cells for 24 hrs at 37 degree Celsius. Following the incubation, media with compound is aspirated and the cells are fixed in 4% paraformaldehyde (PFA) containing PBS + 0.2% TX-100. Next, PFA is aspirated, cells are washed two times with PBS plus 0.2% TX-100 and the cells are blocked for 1 hr at room temperature (blocking buffer: LiCOR Blocking Buffer plus 0.2% TX-100). […] Cells are washed two times with PBS plus 0.2% TX-100, and stained with 10 uM propidium iodide (PI) for 20-25 minutes for cell number measurement (1:500 dilution of Hoescht staining is also added for IN Cell imaging). The plates are scanned on the Acumen Explorer laser scanning instrument (TTP Labtech) using the 488nm laser for simultaneous excitation of the Alexa-488 and PI. […] The normalized phospho-S6 staining is calculated as the ratio of the integrated Alexa 488 intensity divided by the integrated PI intensity for the single concentration rapamycin control (7.5 nM) and DMSO columns. […] Inhibition of the pathway is defined based on the normalized phospho-S6 intensity in rapamycin treated cells. Active cells are defined as those with a normalized phospho-S6 staining above this threshold, and each treatment is reported as the % positive cells in the well, where thresholds are defined by selecting wells with the highest and lowest signal and differentiating between the % non-active and % active populations. In addition to the pathway specific phospho-S6 endpoint, the number of PI stained cells from the Acumen is recorded as a measure of cell viability. The primary screen was performed with a MEF cell line in a defined genetic background, Tsc2-/-, p53-/- cell line stably transfected with an empty vector control (Tsc2-/- MEF).
Potency is the fitted concentration of half-maximal effect; tags give direction and shape of the fitted curve.

Compound	Potency
CC1CCN(S(=O)(=O)c2ccc3nc(Nc4ccc(C#N)cc4)ccc3c2)CC1	inactive
O=C(NCC(c1cccnc1)N1CCc2ccccc2C1)C(=O)Nc1ccccc1 (configuration not stated)	inactive
Cc1cccc(CNC(=O)c2ccc3c(c2)N(C)C(=O)C2CCCCN32)c1 (configuration not stated)	inconclusive [falling, partial curve, poor fit]
O=C1C2=C(Nc3ccccc3SC2c2ccccc2C(F)(F)F)c2ccccc21 (configuration not stated)	inconclusive [falling, partial curve]
Cc1nc(-c2ccc(C)c(S(=O)(=O)N3CCC(C(=O)Nc4ccc(Cl)cc4)CC3)c2)no1	inconclusive [falling, partial curve, poor fit]
COc1ccc(CNC(=O)C2CCN(S(=O)(=O)c3ccc(C)cc3)CC2)cc1	inconclusive [falling, single point]
N#C/C(=C/c1ccc(Cl)cc1Cl)c1nc2ccccc2c(=O)[nH]1	inactive
COc1ccc(NC(=O)CSc2nc(-c3cccs3)cc(C(F)(F)F)c2C#N)cc1	inactive
N#Cc1c(C(F)(F)F)cc(-c2cccs2)nc1SCC(=O)Nc1ccc(F)cc1	inconclusive [falling, single point]
O=C(CSc1nc2c([nH]c3ccccc32)c(=O)n1-c1ccc(F)cc1)NC1CCCCC1	inconclusive [falling, partial curve]
CCC(Sc1nc2nccnc2c(=O)n1Cc1ccc(F)cc1)C(=O)NC1CCCCC1 (configuration not stated)	inactive
CCc1cccc(NC(=O)C2CCC(CNS(=O)(=O)c3csc(C(N)=O)c3)CC2)c1 (configuration not stated)	inactive
CCc1ccc(S(=O)(=O)Nc2cccc(-c3ccc(N4CCC(C)CC4)nn3)c2)s1	inactive
O=C(Cn1cc(C(=O)c2ccco2)c2ccccc21)Nc1ccccc1Cl	inconclusive [falling, partial curve, poor fit]
CCOC(=O)c1sc2ccccc2c1S(=O)(=O)N1CCN(c2cccc(OC)c2)CC1	inconclusive [falling, partial curve, poor fit]
Cc1ccc(C(c2ccccc2)c2c(C)[nH]c3ccccc23)s1 (configuration not stated)	inconclusive [falling, single point]
COc1ccc(-c2cc(C(F)(F)F)nc(-n3nc(C(F)(F)F)cc3C)n2)cc1	inconclusive [falling, single point]
CCc1ccc(CNC(=O)COc2cc(=O)n(CC)c3ccccc23)cc1	inconclusive [falling, single point]
COc1ccc(-c2nc(C)c(CCNC(=O)C(=O)Nc3ccccc3C#N)s2)cc1OC	inactive
O=C(c1ccc(Cl)cc1)N(Cc1ccco1)Cc1ccco1	inactive
CCN(CC)S(=O)(=O)c1nnc(NC(=O)c2ccccc2Cl)s1	inconclusive [falling, partial curve, poor fit]
Cc1ccc2nc(-c3cccc(NC(=O)CSc4ccc(Cl)cc4)c3)oc2c1	inconclusive [falling, partial curve, poor fit]
O=C(Nc1ccccc1C(F)(F)F)c1noc2c1CCCC2	inactive

Compound	Potency
Cc1ccc(NCc2cc3cc4c(cc3n(CC(=O)Nc3ccc(F)cc3F)c2=O)OCCO4)cc1	inconclusive [falling, single point]
CCN(CC)CCNC(=O)c1ccc(-c2nc(CN3CCc4ccccc43)c(C)o2)cc1	inconclusive [falling, partial curve, poor fit]
COc1cc(OC)c(NS(=O)(=O)c2c(C)nc3sc(C)cn3c2=O)cc1Cl	inactive
O=C(Cn1cc(SCc2ccc(F)cc2)c2ccccc21)N1CCCCC1	inconclusive [falling, partial curve, poor fit]
CCCSc1oc(-c2cccs2)nc1S(=O)(=O)c1ccc(C)cc1	inactive
COc1ccccc1NC(=O)c1sc(-c2ccc(Cl)cc2)cc1N	inconclusive [falling, single point]
O=C(Cn1cc(SCc2cccc(Cl)c2)c2ccccc21)N1CCCCC1	inconclusive [falling, partial curve, poor fit]
Cc1ccccc1CSc1nc2c(sc3ccccc32)c(=O)n1CCCC(=O)NCCCOC(C)C	inactive
CCCSc1ncc(Cl)c(C(=O)N(Cc2ccccc2)c2ccc(OC)cc2)n1	inactive
CCOc1ccc(C(=O)OCc2cc(=O)n3nc(C4CC4)sc3n2)cc1	inconclusive [falling, single point]
O=C(CSc1nc2c([nH]c3ccccc32)c(=O)n1-c1cccc(Cl)c1)c1ccccc1	inactive
Cc1cc(C)cc(Nc2cc(C(=O)NCCCN(C)C3CCCCC3)c3ccccc3n2)c1	active: 4.14 µM
Cc1ccc(Cl)cc1N1CCN(C(=O)c2ccc(CS(=O)c3ccccc3)o2)CC1 (configuration not stated)	inconclusive [falling, partial curve, poor fit]
Cc1ccc(C)c(N2CCN(CCCNC(=O)c3cnn(-c4ccccc4)c3C3CCN(C(=O)OC(C)(C)C)CC3)CC2)c1	inconclusive [falling, single point]
COc1ccccc1Nc1c2c(nc3ccc(NC(=O)c4ccccc4F)cc13)CCCC2	inconclusive [falling, single point]
COc1nnc(-c2ccc(N3CCCCC3)c(NC(=O)c3ccccc3Cl)c2)c2ccccc12	inactive
COc1ccc(-n2c(SCc3ccccc3F)nc3c([nH]c4ccccc43)c2=O)cc1OC	inconclusive [falling, single point]
CCOc1ccc(-c2nonc2NC(=O)c2oc3ccc(C)cc3c2C)cc1OCC	inconclusive [falling, partial curve, poor fit]
Cc1ccc(C)c(NC(=O)CSc2nc3c([nH]c4ccccc43)c(=O)n2-c2ccc(F)cc2)c1	inactive
COc1ccc(OC)c(S(=O)(=O)NCC(c2cccs2)S(=O)(=O)c2ccc(F)cc2)c1 (configuration not stated)	inconclusive [falling, single point]
COc1ccccc1CNc1ncnc2c1cnn2-c1ccc(C)cc1	inactive
Cc1ccc(-c2nc(N3CCCC(C)C3)c3ccccc3n2)cc1 (configuration not stated)	inconclusive [falling, single point]
COc1ccc(C)cc1NC(=O)c1cc(S(=O)(=O)N2CCN(c3cccc(C)c3C)CC2)ccc1F	inconclusive [falling, single point]

Compound	Potency
COc1ccc(Nc2c3c(nc4nncn24)CCC3)cc1OC	inconclusive [falling, single point]
O=C(Cn1cnc2onc(-c3ccc(Cl)cc3)c2c1=O)Nc1ccc(F)cc1	inactive
COc1cccc(NC(=O)Cn2nc(C)c3c(C)n(-c4ccccc4)nc3c2=O)c1	inactive
O=C(NCCc1ccccc1)c1ccc(Cn2c(SCc3ccccc3)nc3cccnc32)cc1	inconclusive [falling, partial curve, poor fit]
CCCOc1ccc(Oc2nc(NCC(C)C)nc(N(C)C)n2)nn1	inconclusive [falling, single point]
CCC(C(=O)Nc1ccc(C)c(Cl)c1)n1c(=O)c(-c2ccccc2NC(C)=O)nc2ccccc21 (configuration not stated)	inconclusive [falling, single point]
COc1cc(CNCCSc2nnnn2C)ccc1OCc1ccc(Cl)cc1Cl	inconclusive [falling, single point]
COC(=O)C1=C(C)N(C(C)C)C(=O)C1(NC(=O)c1ccc(C(C)(C)C)cc1)C(F)(F)F (configuration not stated)	inconclusive [falling, single point]
CCOc1ccc(C(=O)Nc2ccc(-n3nncc3-c3ccc(OC)cc3)cc2)cc1	inactive
Cn1nnnc1SCCNCc1ccc(Cl)c(Cl)c1	inactive
COc1ccc(CC(=O)N2CCc3cc(OC)c(OC)cc3C2COc2ccc3c(C)cc(=O)oc3c2)cc1OC (configuration not stated)	inconclusive [falling, full curve, poor fit]
CCC1CN(C(=O)N2CCC(C(=O)N3CCN(c4ccccc4F)CC3)CC2)c2ccccc2O1 (configuration not stated)	inactive
CCS(=O)(=O)c1ccccc1C(=O)Nc1ccc(-c2nc3ccccc3s2)cc1	inactive
O=C(CSc1nc2nccnc2c(=O)n1CCc1c[nH]c2ccccc12)Nc1ccc(F)cc1	inactive
Cc1ccc(NC(=O)CSc2ccc(-c3ccccn3)nn2)cc1F	active: 14.7 µM
N#Cc1c(C(F)(F)F)cc(-c2cccs2)nc1SCC(=O)Nc1cccc(C(F)(F)F)c1	inconclusive [falling, partial curve, poor fit]
CCOC(=O)COc1ccc(F)cc1C(=O)c1ccn2nc(-c3ccc(C)cc3)cc2n1	inactive
COC(=O)c1ccc(Cl)cc1NC(=O)N(Cc1ccc(OC)cc1)C1CCN(C(C)=O)CC1	inconclusive [falling, partial curve, poor fit]
Cc1ccc(CCNC(=O)c2c[nH]c3ccc(S(=O)(=O)Nc4cccc(C(F)(F)F)c4)cc3c2=O)cc1	inactive
CCCCN(C)CCNC(=O)CN1C(=O)CSc2ccc(S(=O)(=O)N3CCCCC3)cc21	inconclusive [falling, partial curve, poor fit]
COCCCNC(=O)CCCn1c(=O)c2ccccc2n(CC(=O)Nc2ccc(C)cc2Cl)c1=O	inconclusive [falling, partial curve, poor fit]
